From PubChem BioAssay AID1159614 (National Center for Advancing Translational Sciences (NCATS), 2016) come the findings set out here.

Structures are written as SMILES. The campaign covered roughly 45,000 compounds. About 65 (0.1%) were called active. Calls come from the whole dose curve; as a rule, active = well fitted activation curve with a large enough effect; inconclusive = small, poorly fitted or top-dose-only effect; inactive = no such curve, though single readings can be large or run the other way. Some of the results follow.

Sequence of UniProt P54803 (P54803 whole entry, looked up): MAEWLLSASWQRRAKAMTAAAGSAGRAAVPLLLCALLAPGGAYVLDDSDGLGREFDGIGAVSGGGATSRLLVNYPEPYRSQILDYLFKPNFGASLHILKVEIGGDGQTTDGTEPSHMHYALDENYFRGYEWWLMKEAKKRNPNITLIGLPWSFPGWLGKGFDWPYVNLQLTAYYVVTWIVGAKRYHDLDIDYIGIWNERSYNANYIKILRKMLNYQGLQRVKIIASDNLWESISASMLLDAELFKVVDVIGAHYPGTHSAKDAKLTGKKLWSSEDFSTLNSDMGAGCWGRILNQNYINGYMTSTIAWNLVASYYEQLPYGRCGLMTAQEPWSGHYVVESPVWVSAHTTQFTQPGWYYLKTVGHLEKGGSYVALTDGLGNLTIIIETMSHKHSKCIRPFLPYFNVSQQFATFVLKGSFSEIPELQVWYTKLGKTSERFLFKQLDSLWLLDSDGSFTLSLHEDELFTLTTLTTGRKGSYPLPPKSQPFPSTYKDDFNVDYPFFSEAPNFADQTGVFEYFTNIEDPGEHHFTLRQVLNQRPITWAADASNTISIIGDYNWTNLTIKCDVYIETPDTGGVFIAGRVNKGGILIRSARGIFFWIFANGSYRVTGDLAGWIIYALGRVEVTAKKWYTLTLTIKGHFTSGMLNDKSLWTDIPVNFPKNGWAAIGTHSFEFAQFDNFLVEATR

The target of this assay is Galactocerebrosidase (Homo sapiens) (UniProt P54803). The assay can be described thus: A Novel Cell-Based Assay to Identify Small Molecules for B -Galactocerebrosidase. Note: 0% is about no effect; nearly all actives have a fitted effect of over 65% in size. Particulars: 145M-Twi-hGALC-G270D cells (Twitcher mouse brain line with human GALC G270D), HMU-beta-Gal fluorescence, 48 h; series mostly up to 57.5 µM; activation: at the top concentration. Put shortly:
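Brain-derived Twitcher mouse 145M-Twi cells stably expressing human GALC-G270D or wild-type GALC, treated live, then residual GALC activity read by fluorescence of HMU-b-Gal substrate (0.1 mM final) in citrate-phosphate buffer pH 5.2 with sodium taurocholate. Signal increase indicates enhancement.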
Turning to `COc1ccc(CNC(=O)Cn2ccc3cc(S(=O)(=O)N4CCCCCC4)ccc32)cc1OC`, the “activation” value is inactive: -6.43%.
With `COc1ccc2oc(=O)cc(CN3CCN(C(=O)c4ccccc4F)CC3)c2c1`, the “activation” value is inactive: 1.54%.
`CCOc1ccc(CNC(=O)C2CCN(S(=O)(=O)c3c(C)noc3/C=C/c3ccc(C)cc3)CC2)cc1OC`: the “activation” value was inactive: 3.11%.
The result for `O=C(CCN1CCC(c2ccccc2)C1)c1ccc2c(c1)OCCO2` (centres undefined) reads inactive: -9.26%; that for `COc1ccc(NC(=O)CSc2nc3nc(C)cc(C)n3n2)cc1`, inactive: -0.142%; that for `CCOc1ccc(CNS(=O)(=O)c2ccc3[nH]c4c(c3c2)CCCC4)cc1OC`, inactive: -10%.
For `Cc1c(CNCc2ccc(Cl)cc2)c(C(=O)O)c(C)n1Cc1ccc(F)cc1`, the “activation” value was inactive: -9.44%.
For `CC(=O)Nc1ccc(NC(=O)CC2Sc3ccccc3NC2=O)cc1` (centres undefined) the value was inactive: -14.8%.
For `Cc1ccc(Cl)cc1N1CCN(C(=O)c2cc(S(=O)(=O)N3CCC(C)CC3)cn2C)CC1` the value was inactive: -1.93%; for `CCCN(CCC)CCCNC(=O)C1CCC(CNS(=O)(=O)c2ccc(NC(C)=O)cc2)CC1` (centres undefined), inactive: 7.07%; for `COc1cccc(CNC(=O)CCc2nnc3n(C)c(=O)c4sccc4n23)c1`, inactive: -8.15%.
For `COc1ccc(NC(=O)Cn2c(CCC(=O)O)ccc2-c2ccccc2)cc1Cl` the value was inactive: -11.2%; for `CCOc1ccc(CC(=O)Nc2c(C(=O)c3ccc(F)cc3)oc3ccccc23)cc1OCC`, inactive: -12.9%; for `CCOC(=O)c1c(C)oc2nc(C)nc(Nc3cccc(OC)c3)c12`, inactive: -15.2%.
With `COc1ccc(C(CNC(=O)COc2ccc(C)c(C)c2)N2CCCCC2)cc1` (centres undefined), the “activation” value was inactive: -11.6%.
For `Cc1ccccc1CSc1cn(CCNC(=O)c2cccs2)c2ccccc12` the value was inactive: -30.7%.
Turning to `COC(=O)c1ccc(C2Nc3c(C)cc(C)cc3C3C=CCC32)cc1` (centres undefined), the “activation” value is inactive: -2.07%.
For `CCC(O)c1nc2ccccc2n1Cc1cccc(Cl)c1` (centres undefined) the value was inactive: -14.5%; for `COc1ccc(CC(=O)Nc2nc3c(s2)CC(C(C)(C)C)CC3)cc1` (centres undefined), inactive: 17.8%; for `Cc1ccc(NC(=O)CN2C(=O)CCSc3ccc(S(=O)(=O)N4CCCC4)cc32)cc1`, inactive: -18.2%.
The result for `COc1ccc(NC(=O)C2=CC(c3cccs3)=NS(=O)(=O)N2C)cc1` reads inactive: -15.3%; that for `Cc1ccccc1CNC(=O)C(C)n1nc(C)n2c(cc3occc32)c1=O` (centres undefined), inactive: 1.89%.
Turning to `Cc1ccc(-c2nc3c(c(SCC(=O)N4CCCCC4)n2)Cc2cc(C)ccc2O3)cc1`, the “activation” value was inactive: -22.6%.
Regarding `CCc1ccc(-c2nc(CSCC(=O)NCc3ccccc3OC)c(C)o2)cc1`, the “activation” value is inactive: -14%.
Turning to `CCn1c(CNC(=O)c2ccc(OC)cc2)nnc1SCC(=O)Nc1ccc(OC)cc1`, the “activation” value is inactive: -10%.
In the case of `CC(C)=CCC[C@@](C)(O)[C@H]1CC=C(C)CC1`, the “activation” value was inactive: -16%.
Take `COc1ccccc1CNC(=O)C(Cc1ccccc1)NS(=O)(=O)c1ccc2c(c1)oc(=O)n2C` (centres undefined): the “activation” value was inactive: -9.18%.
For the compound `CCOC(=O)c1cccc(NC(=O)CSc2ncc3c(n2)-c2ccccc2N(C)S3(=O)=O)c1`, the “activation” value is inactive: -12.7%.
`CCOc1ccc(CC(=O)Nc2ccc3nc(N4CCCCC4)cc(C)c3c2)cc1OCC`: the “activation” value is inactive: 13.2%.
For `O=C(NCCc1ccccc1)c1ccc2c(c1)N(Cc1ccccc1Cl)C(=O)c1ccccc1S2` the value was inactive: -8.78%; for `Cc1nn(Cc2noc(C(=O)NCc3ccc(F)cc3)n2)c(C)c1Br`, inactive: -12.8%.
`CC(C)NC(=O)Nc1ccc2c(c1)N(C)C(=O)c1ccccc1S2`: the “activation” value is inactive: -3.63%.
As to `COc1ccc(-c2nc3scc(CCNS(=O)(=O)c4ccc(F)cc4F)n3n2)cc1OC`, the “activation” value was inactive: -14%.
For `CCc1nnc(NC(=O)CSc2nc3c([nH]c4ccccc43)c(=O)n2-c2cc(C)cc(C)c2)s1` the value was inactive: -0.0995%.
The result for `O=C1CC(c2nc3ccccc3n2CCCCOc2ccccc2)CN1c1ccccc1Cl` (centres undefined) reads inactive: 2.48%; that for `Cc1ccc(-c2noc(COc3ccc(Br)c(C)c3)n2)cc1`, inactive: -0.414%.
For `O=C1C(=O)c2ccccc2C(O)=C1C1CCC(c2ccc(Cl)cc2)CC1` (centres undefined) the value was inactive: -11.3%; for `Cc1nnc(SCc2cc(=O)n3c(C)cccc3n2)s1`, inactive: -0.688%; for `COc1ccc(-n2ncc3c(N4CCN(c5cccc(C)c5)C(C)C4)ncnc32)cc1` (centres undefined), inactive: -12.9%.
With `Clc1cccc(CNc2ncnc3c2nc2n3CCCC2)c1`, the “activation” value was inactive: -13.2%.
For `CCOc1ccc(Cn2c(=O)oc3ccccc32)cc1` the value was inactive: -7.23%; for `O=C(Cn1c(=O)n(Cc2ccc3c(c2)OCO3)c(=O)c2ccccc21)Nc1cccc(Cl)c1`, inactive: -12.2%.
In the case of `NS(=O)(=O)c1ccc(NC(=O)CCn2c(=O)oc3ccccc32)cc1`, the “activation” value was inactive: 2.49%.
The result for `Cc1c(C(=O)N2CCCC2)oc2c1-c1nn(CC(=O)NCc3cccc(Br)c3)cc1CC2` reads inactive: -24%.
Consider `COc1ccc(Cl)cc1NC(=O)CCc1nc(-c2ccccc2F)no1`, for which the “activation” value is inactive: -4.72%.
For `Cc1ccc(-n2nnc3c(sc4nc(C)c(C)cc43)c2=O)cc1Cl` the value was inactive: -16%; for `Cc1ccc(C)c(NC(=O)C2CCCN(S(=O)(=O)c3c(C)noc3/C=C/N(C)C)C2)c1` (centres undefined), inactive: -19.3%.
The result for `COc1ccc(CSc2nc3ncccc3[nH]2)cc1` reads inactive: 7.17%; that for `CCOc1ccc(N2CC(c3nc(-c4cc(OC)c(OC)c(OC)c4)no3)CC2=O)cc1` (centres undefined), inactive: -0.268%.
